Measured values reported in article PMC4336329 (PLoS ONE, 2015).
Among all 310,000 compounds or so, about 2,200 (0.71%) showed an effect of 50% or more. Effects have a minus sign here. This is one part of the list.

target: human ether-à-go-go-related gene (hERG) potassium channel (human, UniProt Q12809); test: primary screen, population patch clamp on CHO cells stably expressing hERG
Sequence (Q12809 whole entry, looked up): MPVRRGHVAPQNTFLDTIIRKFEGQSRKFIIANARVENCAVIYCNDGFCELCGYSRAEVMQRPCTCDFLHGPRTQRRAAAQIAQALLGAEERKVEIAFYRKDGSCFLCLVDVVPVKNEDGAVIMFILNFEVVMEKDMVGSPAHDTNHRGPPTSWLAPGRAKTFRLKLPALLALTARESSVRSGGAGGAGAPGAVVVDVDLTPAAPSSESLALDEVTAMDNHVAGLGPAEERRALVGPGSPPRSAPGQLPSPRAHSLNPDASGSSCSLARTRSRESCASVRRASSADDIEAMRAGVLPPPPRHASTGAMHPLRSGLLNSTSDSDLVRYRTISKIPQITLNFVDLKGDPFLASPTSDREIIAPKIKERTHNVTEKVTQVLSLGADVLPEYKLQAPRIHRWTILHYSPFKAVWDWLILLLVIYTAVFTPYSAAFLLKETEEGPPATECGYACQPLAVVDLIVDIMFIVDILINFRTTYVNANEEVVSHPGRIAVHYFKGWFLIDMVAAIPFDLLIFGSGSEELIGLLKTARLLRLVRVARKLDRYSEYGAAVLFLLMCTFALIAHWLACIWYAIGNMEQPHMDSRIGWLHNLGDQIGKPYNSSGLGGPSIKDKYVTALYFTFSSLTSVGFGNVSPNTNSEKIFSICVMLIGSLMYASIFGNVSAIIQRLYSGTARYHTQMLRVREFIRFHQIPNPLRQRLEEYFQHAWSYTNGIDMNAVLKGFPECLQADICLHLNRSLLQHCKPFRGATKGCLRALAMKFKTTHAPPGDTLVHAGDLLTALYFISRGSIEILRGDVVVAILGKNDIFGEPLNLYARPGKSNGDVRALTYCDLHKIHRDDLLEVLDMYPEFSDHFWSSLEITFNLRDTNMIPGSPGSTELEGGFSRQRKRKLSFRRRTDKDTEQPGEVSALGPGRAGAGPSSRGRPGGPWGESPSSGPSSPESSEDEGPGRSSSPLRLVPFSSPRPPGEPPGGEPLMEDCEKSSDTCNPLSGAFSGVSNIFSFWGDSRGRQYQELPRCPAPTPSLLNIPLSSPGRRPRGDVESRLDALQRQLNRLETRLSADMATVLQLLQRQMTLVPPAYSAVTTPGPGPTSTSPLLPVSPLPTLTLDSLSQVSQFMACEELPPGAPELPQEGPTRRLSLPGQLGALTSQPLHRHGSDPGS

Structure (SMILES)	hERG current change (%, negative = inhibition) at 1uM
COc1ccc(N(CC(O)Cn2nnc3ccccc32)S(=O)(=O)c2ccc(C)cc2)cc1 (stereo not drawn)	-15.8%
O=C(COC(=O)c1ccc[nH]c1=O)NC1CCCc2ccccc21 (stereo not drawn)	11.2%
Cc1sc2nc(CN3CCCC3)nc(Cl)c2c1C	3.18%
Fc1ccc(NC(=S)Nc2ccc(Br)cc2)cc1	11.6%
Cc1ccn(CCC(=O)O)n1	11.7%
CCOC(=O)c1nnc(-c2ccccc2)nc1N1CC(C)OC(C)C1 (stereo not drawn)	2.56%
Cc1ccc2c(c1)C1CN(C)CCC1N2C(=O)Nc1cccc(C(F)(F)F)c1 (stereo not drawn)	-6.66%
CCOC(=O)c1oc2ccccc2c1CN1CCN(c2ccccc2)CC1.Cl	3%
Cc1cc(Cl)ccc1OCCCC(=O)NCc1ccccn1	9.85%
COc1cccc(N/C(=N/C(=S)Nc2ccc(C)cc2C)Nc2nc(C)cc(C)n2)c1	9.13%
CCOCCn1c(CC)nc2ccccc21	10.6%
O=C(Nc1cccc(N2C(=O)C=CC2=O)c1)c1cccs1	5.92%
Cc1cc(C)c2c(c1)cc(C)c1nnc(SCC(=O)Nc3ccccc3N3CCOCC3)n12	12.6%
O=c1[nH]c(CN2CCOCC2)nc2cc(Cl)ccc12	4.78%
Clc1ccc(C2=Nn3c(nnc3-c3cc(-c4ccccc4)n[nH]3)SC2)cc1	-4.12%
O=C(C(Cl)Cl)N1CCN(c2ccccn2)CC1	7.74%
COc1ccc(C(C)=O)cc1COc1nc(C)nc2ccccc12	16.7%
NC(=O)CC(NC(=O)Cc1ccc(Cl)cc1)c1ccc(NC2CC3CCC2C3)c([N+](=O)[O-])c1 (stereo not drawn)	4.46%
Cc1ccc(S(=O)(=O)CCC(=O)Nc2nnc(-c3ccc(F)cc3)o2)cc1	14%
FC(F)(F)c1ccccc1-n1ccnc1	16.9%
Cc1cc(C)c(NC(=O)Cn2nnc(C(=O)Nc3ccc(F)cc3F)c2N)c(C)c1	15.4%
COc1ccc(S(=O)(=O)N2CCC(C(=O)NC3CCCCC3)CC2)cc1OC	10.5%
CCOc1ccccc1OCCCC(=O)N1CCN(S(=O)(=O)c2ccc(Cl)cc2)CC1	14.5%

Structure (SMILES)	hERG current change (%, negative = inhibition) at 1uM
O=c1c2c([nH]c3ccccc13)C(=C1CCCC1)CC2	-4.77%
CC(=O)c1cccc(N(C(=O)CNC(=O)c2ccco2)C(C(=O)NCC2CCCO2)c2ccccc2)c1 (stereo not drawn)	15.7%
O=C(COC(=O)/C=C/c1cccs1)Nc1cccc(S(=O)(=O)N2CCOCC2)c1	12.8%
O=C(CSc1ccccc1)Nc1ccc(N2CCN(c3ccccc3)CC2)c(F)c1	11%
COCCCNCC1C(Oc2ccc(Cl)cc2)C(=O)N1c1ccccc1C (stereo not drawn)	9.03%
CC(C)CC(NC(=O)C1CCC(C)CC1)C(=O)Nc1ccccn1 (stereo not drawn)	7.59%
O=C(O)/C=C/C(=O)NCCc1ccc(Cl)cc1	13.5%
Cc1cc(Br)ccc1NC(=O)CCN1C(=O)c2ccncc2C1=O	9.03%
CCN(CC(=O)Nc1ccccc1C(F)(F)F)C(=O)CN1C(=O)NC2(CCCC2)C1=O	5.04%
Nc1nc(C(=O)N2CCOCC2)nn1S(=O)(=O)c1ccccc1	11.4%
Cc1ccc2nc(NC(=O)/C=C/c3ccc4c(c3)OCO4)sc2c1	11.1%
COC(=O)CSc1nc(N)c(C#N)c(CC(C)C)c1C#N	5.93%
Cc1cc(=O)[nH]c(SCCCOc2ccccc2Cl)n1	6.59%
O=C(Nc1ccc(N2CCN(C(=O)c3ccccc3)CC2)cc1)c1ccc2c(c1)OCO2	-5.1%
Cc1ccc(NC(=S)N2CCc3[nH]c4ccccc4c3C2)cc1	12.7%
FC(F)(F)c1cccc(NC(=S)Nc2cccc(Cl)c2)c1	10.7%
O=C(CCS(=O)(=O)c1ccccc1)N1CCCc2ccccc21	11.8%
Cc1oc(S(=O)(=O)N2CCOCC2)cc1C(=O)Nc1ccc(Cl)cc1	6.6%
CN(C)CCOC(=O)NCC12CC3CC(CC(C3)C1)C2.Cl	9.36%
CN(CC(=O)Nc1ccccc1Cl)C(=O)c1cccc(-n2cccc2)c1	-18%
Cc1ccc(S(=O)(=O)N2CCN(C(=O)c3ccccc3)CC2)c(C)c1NS(C)(=O)=O	13.1%
Cc1ccc(-c2cn3cccnc3n2)cc1NC(=O)c1cccs1	10.5%
CCCSc1nc2c(c(=O)n(C)c(=O)n2C)n1C	11%

Structure (SMILES)	hERG current change (%, negative = inhibition) at 1uM
CC1(C)CCc2cc(CN3CCN(c4ccccn4)CC3)ccc2O1	13.4%
COC(=O)c1ccc(C(C(=O)NCc2ccccc2)N(Cc2cccs2)C(=O)c2cnccn2)cc1 (stereo not drawn)	-8%
C=CCNC(=S)NCC	17.2%
COC(=O)c1ccc(OCC(=O)Nc2nn(-c3ccccc3)nc2C(N)=O)cc1	-10.7%
O=C(NC1CCCCC1)Nn1c(-c2ccccc2)nc2ccccc2c1=O	11.3%
COC(=O)c1ccc(C(=O)OC)c(NC(=O)CN2CCN(c3ccccc3)CC2)c1	3.9%
S=C(NN=C(C1CC1)C1CC1)Nc1ccccc1	-8.05%
COc1ccc(-c2c(C)oc3ccc(C)cc23)cc1	8.91%
CCN(C(=O)c1cnc(OC)cc1C(F)(F)F)c1ccc(Cl)cc1Cl	11.9%
CC1=C(C(=O)OC(C)C)C2(O)C(=O)c3ccccc3C2(O)N1 (stereo not drawn)	14.3%
Clc1cccc(C2Nc3cccc4cccc(c34)N2)c1Cl	8.98%
O=C(c1ccccc1)c1cn(CC(=O)N2CCCc3ccccc32)c2ccccc12	8.76%
COc1ccc(N2C(=O)CC(n3c(CCCCO)nc4ccccc43)C2=O)cc1 (stereo not drawn)	13.7%
Cc1ccc(OCCn2c(=O)cnc3ccccc32)cc1	2.58%
Cc1ccc(C(=O)c2ccccc2C(=O)OCC(=O)Nc2cccc([N+](=O)[O-])c2)cc1	-8.09%
COCCN(C(=S)Nc1ccc(C)cc1)C(C)c1ccco1 (stereo not drawn)	2.27%
Cc1ccc(N(CC(=O)Nc2ccccc2-c2ccccc2)S(=O)(=O)c2ccccc2)cc1	13.3%
CCCNC(=O)NCc1ccc(N2CCCC2=O)cc1	9.05%
CCCNC(=O)C(Cc1ccccc1F)NC(=O)c1ccc(C#N)cc1 (stereo not drawn)	8.98%
COc1ccc(C(=O)NCCNc2nc3ccc(C)cc3cc2C#N)cc1OC	4.63%
CCCCn1c(SCC(=O)N2CCC(C)CC2)nc2ccsc2c1=O	-19.1%
C=C(Br)Cn1cnc2ccccc21	5.28%
COc1ccc2cc(CN(Cc3cccnc3)S(=O)(=O)c3ccccc3)c(=O)[nH]c2c1	-16.2%

Structure (SMILES)	hERG current change (%, negative = inhibition) at 1uM
Cc1ccc(/C=N/NC(=O)CC(=O)NCc2cccnc2)cc1	9.29%
CCCCNCc1cc(Br)c(OCC(=O)NCc2ccccc2)c(OC)c1.Cl	-9.88%
COC(=O)C1=C[C@@H](C(=O)OC)[C@@H]2C3=C(C(=O)[C@@]2(C)NC(=O)c2ccccc2)[C@H](C)n2c(=O)n(C)c(=O)n2[C@@H]3C1	10.7%
COc1ccc(CN=Cc2c(C(=O)O)[nH]c3ccccc23)cc1	6.32%
Cc1c(NC(=O)C(C)OC(=O)C23CC4CC(CC(Br)(C4)C2)C3)c(=O)n(-c2ccccc2)n1C (stereo not drawn)	-7.53%
Cc1sc(NC(=O)C2C3CCC(O3)C2C(=O)O)c(C(=O)OC(C)C)c1-c1ccc(Cl)cc1 (stereo not drawn)	14.4%
COc1ccc(-c2cc(C(=O)NCc3ccccc3)no2)cc1OC	-4.55%
COc1ccc(S(=O)(=O)N2CCC(C(=O)NC3CCCCC3C)CC2)cc1 (stereo not drawn)	7.41%
COc1nc(Nc2cccc(F)c2)nc(OC)n1	4.66%
COc1cc(SC)ccc1C(=O)NCc1ccccc1	14.3%
CCOc1ccc(C(=O)CSCCC(=O)O)cc1	3.67%
CCN(CC)S(=O)(=O)c1ccc(C(=O)Nc2ncn(Cc3ccccc3)n2)cc1	8.32%
COc1cccc(NC(=O)C(=O)N2CCOCC2)c1	13%
O=C(CSc1nnc(-c2cccnc2)n1-c1ccccc1)NCc1ccc2c(c1)OCO2	-47.9%
CCOC(=O)CSc1nc(NC#N)nc(N(CC)CC)n1	14.4%
CC(C)OC(=O)c1c(NC(=O)c2cnn3c2NC(c2ccccc2)CC3C(F)F)sc2c1CCCC2 (stereo not drawn)	11.8%
CC(C)(O)C(=O)Nc1ccc([N+](=O)[O-])c(C(F)(F)F)c1	4.18%
O=C1NC(=S)N(c2ccccc2F)C(=O)/C1=C\c1cccs1	11.3%
O=C(OCc1cc2ccccc2[nH]c1=O)c1ccncc1	9.42%
O=C(c1ccc(S(=O)(=O)NCC2CCCO2)cc1)N1CCN(c2ccccc2F)CC1 (stereo not drawn)	2.29%
COc1ccc(CNC(=O)CCN2C(=S)NC(C)(C)CC2C)cc1 (stereo not drawn)	9.79%
